# Laboratory results from PMC4336329 (PLoS ONE, 2015).
# About 14,000 (4.5%) of roughly 310,000 compounds showed an effect of 50% or more. The effect is printed as a negative number. The list shows a part of the results.
# Target: human ether-à-go-go-related gene (hERG) potassium channel (human, UniProt Q12809)
# Assay: primary screen, population patch clamp on CHO cells stably expressing hERG
# 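Also: peak tail current of the secondary pulse compared with the same well before compound.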
# Chain of human ether-à-go-go-related gene (hERG) potassium channel (Q12809 whole entry, looked up): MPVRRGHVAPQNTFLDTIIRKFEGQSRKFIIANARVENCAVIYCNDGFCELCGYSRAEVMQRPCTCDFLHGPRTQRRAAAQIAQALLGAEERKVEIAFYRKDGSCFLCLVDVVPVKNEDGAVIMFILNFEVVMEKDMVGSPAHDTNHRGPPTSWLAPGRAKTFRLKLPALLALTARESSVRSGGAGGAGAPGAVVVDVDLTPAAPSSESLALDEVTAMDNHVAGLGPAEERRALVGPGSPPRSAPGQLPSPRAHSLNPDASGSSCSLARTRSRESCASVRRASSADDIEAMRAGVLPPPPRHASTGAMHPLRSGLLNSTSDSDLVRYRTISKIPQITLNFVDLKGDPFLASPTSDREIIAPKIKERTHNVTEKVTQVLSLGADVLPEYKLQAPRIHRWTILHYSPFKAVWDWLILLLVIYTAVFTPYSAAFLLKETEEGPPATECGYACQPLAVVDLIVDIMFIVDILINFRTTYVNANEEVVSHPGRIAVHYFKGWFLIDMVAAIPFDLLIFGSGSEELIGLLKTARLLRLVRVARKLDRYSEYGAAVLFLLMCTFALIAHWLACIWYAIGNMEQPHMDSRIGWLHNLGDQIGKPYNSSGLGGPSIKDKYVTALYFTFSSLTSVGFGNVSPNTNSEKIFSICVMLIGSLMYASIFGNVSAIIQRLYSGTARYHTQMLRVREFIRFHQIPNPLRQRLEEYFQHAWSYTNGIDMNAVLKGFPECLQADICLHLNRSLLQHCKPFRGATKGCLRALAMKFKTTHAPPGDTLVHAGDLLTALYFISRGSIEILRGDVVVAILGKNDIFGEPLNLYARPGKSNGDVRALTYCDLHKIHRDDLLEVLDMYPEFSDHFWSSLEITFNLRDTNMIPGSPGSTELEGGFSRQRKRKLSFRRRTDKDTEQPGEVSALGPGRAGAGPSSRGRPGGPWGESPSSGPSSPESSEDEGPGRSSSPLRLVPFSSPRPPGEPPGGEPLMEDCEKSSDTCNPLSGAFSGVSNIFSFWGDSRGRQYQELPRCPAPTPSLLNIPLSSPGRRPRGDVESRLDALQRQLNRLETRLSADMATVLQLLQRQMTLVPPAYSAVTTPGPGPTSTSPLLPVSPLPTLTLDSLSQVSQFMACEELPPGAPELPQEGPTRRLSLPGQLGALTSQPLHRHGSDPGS
row,Compound,"hERG current change (%, negative = inhibition) at 10uM"
1,COC(=O)C1=C(C)N(c2ccc(C)c(C)c2)/C(=C/c2ccc(O)cc2)C1=O,-0.474%
2,COc1cccc(NC(=O)C2CCN(S(=O)(=O)c3ccc4c(c3)OCCO4)CC2)c1,30%
3,CC(CN1CCCCC1)OC(=O)C(C)(c1ccccc1)c1ccccc1.Cl (stereo not drawn),-52.3%
4,Cc1c(Cl)cccc1NC(=O)c1cccnc1,10.7%
5,Cc1ccc(NC(=O)N2Cc3ccccc3CC2C(=O)NC(C)(C)C)cc1 (stereo not drawn),9.45%
6,COc1cccc(NC(=O)CCCNC(=O)Cn2cnc3sc(C)c(C)c3c2=O)c1,4.45%
7,COc1ccc(OC)c(NC(=O)Cn2cc(C=O)c3ccccc32)c1,19.8%
8,Cc1ccc(C)c(S(=O)(=O)N2CC(=O)N(CCc3ccccc3)C(=O)C2)c1,12%
9,Cc1ccc(CC2CC(=O)N(c3nc4ccccc4s3)C2=O)cc1 (stereo not drawn),9.26%
10,O=C(O)CN=C(NS(=O)(=O)c1ccc(Cl)cc1)c1ccc(F)cc1,15.9%
11,O=C(N/C(=C/c1cccc(Br)c1)c1nc(=S)[nH][nH]1)c1ccccc1,9.47%
12,CCOc1ccc(C2C(C(=O)c3ccco3)=C(O)C(=O)N2CCN2CCOCC2)cc1OCC (stereo not drawn),23.6%
13,O=c1[nH]c2ccccc2nc1Cc1ccc(Cl)cc1,16.2%
14,CCc1cccc(C)c1N(C(=O)Cn1c(CO)nc2ccccc21)C(C)COC (stereo not drawn),-5.89%
15,CCc1ccc(NC(=S)N(Cc2cccnc2)Cc2ccco2)cc1,-17.2%
16,CCCCn1c(Cc2ccccc2)nnc1SCC(=O)Nc1cc(C)on1,0.409%
17,Cc1cc(C)c([N+](=O)[O-])cc1-c1ccc(/C=N/NC(=O)c2nonc2N)o1,-34%
18,CCCCNC1=CC(=O)C(=O)c2ccccc21,-38.4%
19,C=CCOc1ccc(/C=C2\SC(N)=NC2=O)cc1OC,5.34%
20,O=C(Nc1ccc(F)c(F)c1)c1cccnc1,0.898%

row,Compound,"hERG current change (%, negative = inhibition) at 10uM"
1,O=C(NCc1cccnc1)c1c(O)c2cccc3c2n(c1=O)CCC3,-41.6%
2,O=C1CCC(=O)N1c1ccc(S(=O)(=O)Nc2cccc(Br)c2)cc1,4.74%
3,Nn1c(Cc2ccccc2F)n[nH]c1=S,46%
4,CCOC(=O)C1CCCN(C(=O)c2ccccc2[N+](=O)[O-])C1 (stereo not drawn),12.9%
5,COc1ccc(N2C(=O)CC(NCc3cccs3)C2=O)cc1 (stereo not drawn),-2.02%
6,CCN(CC)C(=O)CN(c1cccc(C(F)(F)F)c1)S(C)(=O)=O,-9.63%
7,CCN(CC(=O)Nc1c(F)cccc1F)C(=O)C1CC1,3.28%
8,CC(C(=O)O)n1nc2ccccc2n1 (stereo not drawn),21.4%
9,O=C1CC(N2CCC(c3nc4ccccc4o3)CC2)C(=O)N1c1ccc(F)cc1 (stereo not drawn),-46.3%
10,CCOC(=O)c1c(NC(=O)Cn2nc(C(=O)O)c3ccccc3c2=O)sc(CC)c1C,42%
11,COc1ccc(Cl)cc1N(CC(=O)Nc1ccccc1SC)S(C)(=O)=O,-19.9%
12,Fc1ccc(CSc2nsc(SCc3ccc(F)cc3)n2)cc1,9.9%
13,COc1cc2c(cc1OC)CN(C(=O)C1(c3ccccc3)CC1)CC2,-13.4%
14,CCOC(=O)/C(C#N)=C1\SS/C(=C(/C#N)C(=O)OCC)S1,18.5%
15,CCOc1cc2[nH]c(=S)n(Cc3ccc(C(=O)NCCOC)cc3)c(=O)c2cc1OCC,2.62%
16,Cc1ccc(/C=N/NC(=O)c2c(-c3ccccc3)noc2C)c(O)c1,-5.9%
17,O=C(COC(=O)/C=C/c1cccc(F)c1)NC1CCCC1,4.41%
18,O=C(c1cccs1)N1CCN(S(=O)(=O)c2ccc(F)cc2)CC1,-7.26%
19,O=C(Nc1ccc2oc(-c3ccncc3)nc2c1)c1ccccc1,9.7%
20,C/C(=N/NS(=O)(=O)c1ccc(C)c(C)c1)c1c[nH]c2ccccc12,29.6%

row,Compound,"hERG current change (%, negative = inhibition) at 10uM"
1,Cc1cc2c(C)c(C)c(=O)[nH]c2cc1N,7.66%
2,COc1ccc(C(=O)NC(C)CCc2ccccc2)cc1[N+](=O)[O-] (stereo not drawn),-33.7%
3,CCc1nnc(N/N=C/c2ccc(-c3ccc([N+](=O)[O-])cc3)o2)n1N,-18.6%
4,O=C(COC(=O)c1cc(=O)[nH]c2ccccc12)c1cccs1,19.8%
5,CCOC(=O)c1sc(=S)n(C)c1N,-12.2%
6,Cc1nnc(Nc2ccc(Cl)cc2)s1,8.14%
7,CCOC(=O)C1(Cc2cccc(Cl)c2)CCCN(C(=O)CCNC(C)=O)C1 (stereo not drawn),7.98%
8,O=C(COC(=O)c1cc2ccccc2oc1=O)Nc1cccc(Br)c1,18.3%
9,Cc1ccccc1NC(=S)NCCc1ccccc1,5.04%
10,CCOc1c2ccoc2nc2c(OC)c(OC)ccc12,-2.57%
11,Cc1c(C(O)CN2CCC(C(N)=O)CC2)c2ccccc2n1C (stereo not drawn),-3.73%
12,CCOc1cccc2cc(C(=O)NCc3cccnc3)c(=O)oc12,-1.94%
13,COC(=O)CCC(=O)NNC(=O)c1ccc(Cl)cc1Cl,18%
14,Clc1ccc(-c2ccnc(Oc3ccc4ccccc4c3)n2)cc1,7.34%
15,C=CCNc1cc(C)oc(=O)c1C(=O)CC,-4.15%
16,COc1ccc(C=O)cc1CSc1ccccn1,-11.2%
17,CN1CCN(c2ccc([N+](=O)[O-])c(NCC3CCCO3)c2)CC1.Cl (stereo not drawn),-41.4%
18,O=C(COC(=O)C1CCC1)NCc1ccc(Cl)cc1Cl,6.29%
19,CC(=O)C1=C(O)CCC1=NCCc1ccccc1,5.41%
20,O=C(Nc1ccc(OC(F)(F)F)cc1)Nc1cccnc1,-45.5%
